In publication PMC12136788:
Some of the results follow.

T1: UNK ZnF1-3 (human, UniProt Q9C0B0 31-174)
T1 sequence: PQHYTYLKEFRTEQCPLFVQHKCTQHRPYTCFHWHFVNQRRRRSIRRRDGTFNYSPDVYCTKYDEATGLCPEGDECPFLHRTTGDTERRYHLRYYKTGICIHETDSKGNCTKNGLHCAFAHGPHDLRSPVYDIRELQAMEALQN

B1: chr7:141438946:141438947:+_ENSG00000106028_ENST00000265304|hu_mus|hu_hu_hu_mus_True|38_98 (ssRNA)
RNA: GGGAGUUCUACAGUCCGACGAUCGACGAAAUACCUGACAGGUCUUCCUUCGAAACAUGGCUUCUGUUUUUCUUACAACCUAAUCUUUAGGCUUUUCCUGACGAUCUGAAAGAAAAGAGAAAAAUGAUAAAUCAAGAAACUACACAACAGAGGAUUGAGCAUCA
B2: chr2:202488911:202488912:-_ENSG00000155755_ENST00000286196|hu_mus|hu_hu_hu_mus_False|38_38 (ssRNA)
RNA: GGGAGUUCUACAGUCCGACGAUCAUUGAAACAUUUUUCAUAAUCUCCAGUAGCAUUUCAGCAUUAUGUAACAAAAGCUCAAUUGUAAAUACAUGUAUAUACAUCUUAUACACUUAAAAACACGAGUGGGGAGCGCAGGCGCCACAACAGAGGAUUGAGCAUCA
B3: chr9:95013113:95013114:-_ENSG00000196305_ENST00000443024|hu_hu|hu_hu_hu_mus_False|78_88 (ssRNA)
RNA: GGGAGUUCUACAGUCCGACGAUCCUCAGUCAGAAAGGGCGUGUAAGGAGCCAUAAGUCUGCAAAGAGAAAGCAGGACACUGAACAGUGUCUCCAGAGCCAUGACACAGUCUUCCACCCCACUCUCACCCUUUAACCUCCUCCUCAACAGAGGAUUGAGCAUCA
B4: chr15:100647222:100647223:+_ENSMUSG00000023032_ENSMUST00000023776|mus_mus|motif|central (ssRNA)
RNA: GGGAGUUCUACAGUCCGACGAUCGGGCCAAAAAACUCAUGAUAGUUUUGGAACAUAGAAAAUCACACAUAUACUUUUAAACGGAGUAUCCAAAGUGAUGCCACCGCUUACAGCUCAUUUCUUCGUGUGGCUUUUACACCUGAGCAACAGAGGAUUGAGCAUCA
B5: 63459772_63459892_11392_CDS_ENSMUSG00000030451_ENSMUST00000076226|mouse|control|control (ssRNA)
RNA: GGGAGUUCUACAGUCCGACGAUCCGCAGCCAGAGAGGCAGCAAGGCGAGGGACGAUGCUUCUGUUGGAGGUGAGAUUGAGUCGGAAGUCCAAGAGACAGGUCACCAGGUCCAUGGAUGGACAUGAGAGGACACAGCGAUCCGACAACAGAGGAUUGAGCAUCA
B6: chr1:168330043:168330044:-_ENSMUSG00000040596_ENSMUST00000169324|mus_mus|FALSE|FALSE (ssRNA)
RNA: GGGAGUUCUACAGUCCGACGAUCCUUGGCAGCCUGACAGUUGUUGGUGCUCUCGGCGUACUCCACCACCAUCAGCUUGAACCCUGCAUCAUAACUGCGGCGCAUGCCACGACUGAACUGAAACUUGCUCGCCAAGUCGUCAGCCAACAGAGGAUUGAGCAUCA
B7: chr2:78712580:78712581:+_ENSMUSG00000027011_ENSMUST00000028398|mus_mus|FALSE|FALSE (ssRNA)
RNA: GGGAGUUCUACAGUCCGACGAUCGUUAGGAGGAGGAUCAAGGGUUAUCUCUGCUAGCUCCUUCUGAAUUCUUUUAGCACUAGUGGAUAACUUAGCAGUCGUUUUGCUAGAGAGUUUGGUGUUUUUCUUCUGCUGGGUGGCAGACAACAGAGGAUUGAGCAUCA
B8: 23956996_23957116_5964_CDS_ENSMUSG00000039218_ENSMUST00000088621|mouse|control|control (ssRNA)
RNA: GGGAGUUCUACAGUCCGACGAUCCCGCUUGCCUCGAGCUGCCCUAGGAGUACGAGACCUAGAACGGCGGCGGAUAGCAAGUGGUGAGCGGCUUCGAGAGCGCUUGCGUGGCAACAGUGGUGUCCGAGACCUAGAUCGUCUUCGCAACAGAGGAUUGAGCAUCA
B9: chr6:41757443:41757444:+_ENSG00000214736_ENST00000398881|hu_hu|FALSE|FALSE (ssRNA)
RNA: GGGAGUUCUACAGUCCGACGAUCAGCCUGUCUGCUGACCAGAGAAUGGAAUUCUGCGUGGACUCAAGGAACAAAAGGAAACUAGGCAGGGAAGGGGAAGAAAAGUGCCCAUCUGAAUCAAACUUCAGCUGCCAUCAGGGCACACAACAGAGGAUUGAGCAUCA
B10: chr10:34018390:34018391:+_ENSMUSG00000039485_ENSMUST00000047935|mus_mus|FALSE|FALSE (ssRNA)
RNA: GGGAGUUCUACAGUCCGACGAUCGCCCAUCAGAUAGUAUUGUAGGGGAUUGGACCACAGCUCCCCUUUGAUAAUUUCAGCUAUUCUGUCGAAUUCUAGGAGGCUGUGGUCUGAGAACCAGUUGAAGAAACUGGGAAUCGUGUUCAACAGAGGAUUGAGCAUCA
B11: chr7:125832625:125832626:-_ENSMUSG00000033917_ENSMUST00000038791|mus_hu|FALSE|FALSE (ssRNA)
RNA: GGGAGUUCUACAGUCCGACGAUCAAGAUGGGAUUCGUAGUAACUCUUUUCAUCAAAGGUAUUAACAGUCCAACCAACAACCUGGAUUCCUUUAGCUGACCACUUCUUCAAGUAGGCCGGGGAUACAAAAUCCUUUUGCAUGAGCAACAGAGGAUUGAGCAUCA
B12: chr19:32867047:32867048:+_ENSMUSG00000013663_ENSMUST00000013807|mus_mus|motif|central (ssRNA)
RNA: GGGAGUUCUACAGUCCGACGAUCAGCACAUAGAUUGUAUAUCUUGUAAUGGUUUUUAUGCUUUGAAUCCAAAAACCUUACGGCAUCAUCAAUAUUGUUCCUGUAUACACCUUCAAGUCUUUCUGCAGGAAAUCCCAUAGCAAUCAACAGAGGAUUGAGCAUCA
B13: chr6:13820011:13820012:-_ENSMUSG00000052419_ENSMUST00000155856|mus_hu|motif|central (ssRNA)
RNA: GGGAGUUCUACAGUCCGACGAUCUAAAUGUUUUUUCCCUAGAGAUAAAAGUUUUCCUUUUUGCCUGACUCUCUGAUAUCGGAAUAUAAUAUUAACUUGGGAGACAACAAAACAAAAAUCUAAUUUAAAAGACUCCUCAACGAUCAACAGAGGAUUGAGCAUCA
B14: chr12:39763582:39763583:-_ENSG00000139116_ENST00000544797|hu_mus|hu_hu_hu_mus_False|68_108 (ssRNA)
RNA: GGGAGUUCUACAGUCCGACGAUCCUCUAAGAAUUGGGCAUUCACUUUGAAUUCAGGAGGGGGCAGCCCAUUUUUAAUCGCUGAGGUCUUUUUCUCAUCAAUACUCUUGAACAGGUGUCUAACAGCACGAGAGAUGAUGCCCUGCAACAGAGGAUUGAGCAUCA

The binders below were run against T1, UNK ZnF1-3 (assay: nsRBNS (natural sequence RNA bind-n-seq); RBNS binding buffer (assumed for nsRBNS): 25 mM Tris pH 7.5, 150 mM KCl, 3 mM MgCl2, 0.01% Triton X-100, 500 ug/ml BSA, 20 U/ml SUPERase-In, 4 C; UNK is unkempt and MSI1 is Musashi-1; names of the RNAs are library labels; protein concentration not given here; high values mean tight binding).
With B1 the binding signal was 0.842 enrichment R. Binder B2 has a binding signal of 0.975 enrichment R. With B3 the binding signal was 1.34 enrichment R. In the case of B4, the binding signal is reported as 0.905 enrichment R. Binder B5 has a binding signal of 1.51 enrichment R. With B6 the binding signal was 0.671 enrichment R. With B7 the binding signal was 0.752 enrichment R. Binder B8 has a binding signal of 0.783 enrichment R. B9 showed a binding signal of 1.96 enrichment R. B10 was tested, and the binding signal was 0.771 enrichment R. Work on B11 yielded a binding signal of 0.714 enrichment R. In the case of B12, the binding signal is reported as 1.12 enrichment R. With B13 the binding signal was 1.49 enrichment R. B14 gave a binding signal of 1.64 enrichment R.
